Test results taken from PubChem BioAssay (NCATS).
The inconclusive results got no clear call from the source; some entries with a clear call stand among them for comparison. Potencies of inconclusive entries are doubtful fits and often do not repeat. Activity calls are given as the source filed them.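 Rule for the calls: active = compounds whose dose series gives a full or clear partial fitted curve of increased nuclear translocation; inconclusive = weak partial curve or effect only at the top dose; inactive = no dose-dependent translocation response.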

Each compound was assayed against Glucocorticoid receptor (Homo sapiens) (UniProt P04150) (assay: GR-GFP Redistribution (AID 450)). Conditions: U2OS GR-GFP nuclear translocation, laser cytometry, 2 h.
Potency is the fitted concentration of half-maximal effect; tags give direction and shape of the fitted curve.

Sequence of UniProt P04150 (P04150 whole entry, looked up): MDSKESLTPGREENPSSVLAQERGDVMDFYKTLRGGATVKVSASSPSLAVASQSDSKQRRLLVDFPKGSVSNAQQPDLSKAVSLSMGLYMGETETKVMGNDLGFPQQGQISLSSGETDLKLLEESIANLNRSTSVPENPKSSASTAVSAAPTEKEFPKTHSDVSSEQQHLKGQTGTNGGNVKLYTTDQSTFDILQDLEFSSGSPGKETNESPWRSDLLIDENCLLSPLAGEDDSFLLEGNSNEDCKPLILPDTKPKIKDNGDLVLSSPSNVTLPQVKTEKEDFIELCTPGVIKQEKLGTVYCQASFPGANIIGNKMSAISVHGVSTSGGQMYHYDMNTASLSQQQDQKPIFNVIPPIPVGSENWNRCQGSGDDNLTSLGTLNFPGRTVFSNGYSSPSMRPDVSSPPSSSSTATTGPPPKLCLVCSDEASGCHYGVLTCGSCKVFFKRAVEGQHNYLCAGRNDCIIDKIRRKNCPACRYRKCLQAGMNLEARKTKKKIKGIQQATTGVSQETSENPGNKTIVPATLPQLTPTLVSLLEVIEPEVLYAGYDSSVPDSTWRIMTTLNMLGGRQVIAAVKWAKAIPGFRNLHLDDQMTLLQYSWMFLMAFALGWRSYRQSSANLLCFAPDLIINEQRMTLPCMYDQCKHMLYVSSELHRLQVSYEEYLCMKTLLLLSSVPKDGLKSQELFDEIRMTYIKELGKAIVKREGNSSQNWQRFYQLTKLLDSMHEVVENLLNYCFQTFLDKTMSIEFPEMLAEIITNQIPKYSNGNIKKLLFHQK

SMILES | Potency
Brc1ccc(-c2cnc3n2CCCC3)cc1 | inactive: > 20.6 µM
C[C@@]12CCC(=O)C=C1CC[C@@H]1[C@@H]2[C@H](O)C[C@]2(C)[C@@H]1CC[C@]2(O)C(=O)COC(=O)CCC(=O)O | active: 0.112 µM
CC(=O)[C@]1(O)CC[C@@H]2[C@H]3C[C@@H](C)C4=CC(=O)CC[C@@]4(C)[C@H]3[C@@H](O)C[C@]21C | active: < 2.95e-05 µM
COc1cc(/C=N/n2c(C)nnc2C)cc(OC)c1OC | inactive: > 20.6 µM
C[C@@]12C=CC(=O)C=C1CC[C@@H]1C2=CC[C@]2(C)[C@@H]1CC[C@H]2C(=O)CN1CCN(c2cc(N3CCCC3)nc(N3CCCC3)n2)CC1 | inconclusive: 21.2 µM [partial curve]
CC(=O)S[C@H]1CC2=CC(=O)CC[C@@]2(C)[C@H]2CC[C@@]3(C)[C@H](CC[C@]34CCC(=O)O4)[C@@H]12 | active: 2.45 µM
CC1CCC(C(=O)O)([C@H](Br)C(=O)O)CC1 (some centres not stated) | inactive: > 46 µM
COc1ccccc1-c1nnc2n1N=C(c1ccc(O)c(O)c1)CS2 | inconclusive: 2.8 µM [partial curve]
Cc1cccc(CNc2ncnc3ccc(-c4cccc(C#N)c4)cc23)c1 | inconclusive: 36.8 µM [single point]
Cc1ccc(Cn2ncc3c(N4CCN(Cc5ccc(Cl)cc5)CC4)ncnc32)cc1 | inactive: > 20.6 µM
CC1(C)Cc2c(c(N3CCOCC3)nc3sc(C#N)c(N)c23)CS1 | inactive: > 20.6 µM
CCCCCCCC(=O)OCC(=O)[C@@]1(O)CC[C@H]2[C@@H]3CCC4=CC(=O)CC[C@]4(C)[C@H]3[C@@H](O)C[C@@]21C | active: 0.00571 µM
O=c1ccnc(SCc2ccc(Cl)cc2)[nH]1 | inactive: > 46 µM
O=[N+]([O-])c1ccc2c(c1)S(=O)c1ccccc1-2 (configuration not stated) | inactive: > 46 µM
Nc1nc2c(nc(Br)n2[C@@H]2O[C@H]3COP(=O)(O)O[C@@H]3[C@H]2O)c(=O)[nH]1 | active: 12.1 µM
CC(=O)CC(=O)[C@@]1(O)CC[C@@H]2[C@@H]3C=C(C)C4=CC(=O)CC[C@@H]4[C@H]3CC[C@]21C | inconclusive: > 20.6 µM [partial curve]
O[C@@H](c1cc(-c2ccc(Cl)cc2)nc2ccccc12)[C@@H]1CCCCN1 | inconclusive: 46.4 µM [single point]
